# Test results published in PubChem BioAssay AID686978 (National Center for Advancing Translational Sciences (NCATS), 2013).
# The whole screen tested about 420,000 compounds, of which about 64,000 (15%) were called active. This list was built around the results that the source calls inconclusive (neither active nor inactive); the mix of calls is not that of the screen. The call rests on the fitted dose curve; in most records, active means well fitted inhibition curve with a large enough effect; inconclusive means small, poorly fitted or top-dose-only effect; inactive means flat fitted curve, though single readings scatter. Potencies of inconclusive entries are left out as doubtful fits.
# Experiment: qHTS for Inhibitors of human tyrosyl-DNA phosphodiesterase 1 (TDP1): qHTS in cells in absence of CPT; further: nearly all actives have a fitted effect of over 55% in size
# Details: DT40 Tdp1-/- hTDP1 cells, no CPT, ATP luminescence, 48 h; activity change, negative = growth inhibition: at 46.2 µM (top of the series) unless noted
# Method in brief: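 Luminescent ATP content (CellTiter-Glo) served as the growth readout. Knockout chicken DT40 cells expressing human TDP1 were exposed to compounds without camptothecin for a minimum 48 hr at 37 °C.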
# On the % scale 0 is the no-effect control and ±100 the full control effect; potency means the concentration at half of the fitted maximal effect; tags describe the fitted curve by direction and shape.
SMILES,Potency,"activity change, negative = growth inhibition"
COc1ccc(N2CCN(CCCNC(=O)C3COc4ccc(OC)cc4C3)CC2)cc1 (stereo not drawn),active: 20.6 µM,
CCCCc1ccc(NC(=S)N2CCN(C)CC2)cc1,"inconclusive [inhibitor, single point]",
Cc1c(-c2nsc(NC(=O)c3ccc(Cl)cc3)n2)nnn1-c1ccc(C(C)C)cc1,active: 9.2 µM,
COc1ccc(NC(=O)c2cnn(-c3ccc(C)cc3)c2-n2cccc2)cc1Cl,"inconclusive [inhibitor, partial curve]",
CC(=O)Nc1cc(C(=O)N(C)Cc2ccco2)ccc1Sc1ccc(C)cc1,"inconclusive [inhibitor, partial curve]",
COc1ccc(NS(=O)(=O)c2ccc(NS(=O)(=O)c3ccc(C)cc3)cc2)nn1,,inconclusive: -30.5% [inhibitor]
COC(=O)c1sccc1NC(=O)CNC(=O)c1ccccc1,inactive,
COc1cc(Cl)c(C)cc1NC(=O)COC(=O)c1cc[n+]([O-])cc1,inactive,
COc1ccc(S(=O)(=O)c2cn(C)c3cc(N4CCCCC4)c(F)cc3c2=O)cc1,"inconclusive [inhibitor, single point]",
O=C(c1cccc(OC2CCN(C3CCCC3)CC2)c1)N1CCCCCCC1,"inconclusive [inhibitor, single point]",
Cc1cc(Br)ccc1NC(=O)c1cc2c(=O)n(C)c3cc(Cl)ccc3c2s1,"inconclusive [inhibitor, partial curve]",
COc1ccc(-c2nc(C(N)=O)c3[nH]c(=O)n(-c4ccccc4OC)c3n2)c(OC)c1,active: 16.4 µM,
S=Cc1ccc(/C=C/c2ccnc3ccccc23)cc1,"inconclusive [inhibitor, single point]",
COc1ccc2[nH]c3c(c2c1)CCN1C(=O)C(CC(=O)NCc2ccc(OC)c(OC)c2)C[C@H](C(=O)N2CCOCC2)[C@@]31CCC1CCCC1 (stereo partly drawn),"inconclusive [inhibitor, single point]",
COc1cc(C[C@H](C)[C@H](C)Cc2ccc3c(c2)OCO3)ccc1O,"inconclusive [inhibitor, single point]",
CCOCCCn1c(=S)[nH]c2cc(C(=O)N3CCN(C)CC3)ccc2c1=O,inactive,
Cc1ccc(-c2nc3[nH]c(=O)cc(NC(=O)C(C)C)n3n2)cc1,"inconclusive [inhibitor, single point]",
Cc1ccc(CNC(=O)c2ccccc2NC(=O)CSc2nnnn2C)cc1,"inconclusive [inhibitor, single point]",
